In patent US10793631B2, “Human PAC1 antibodies” (AMGEN INC., priority 2013, dated 2020):

Legend:
Type in all cases: cell-based
[1] = target: T1, hPAC1 short (hPAC1 with amino acid residues 89-109 deleted) (Homo sapiens, UniProt P41586); test: cAMP assay, cells expressing recombinant hPAC1 short
T1 construct: range used: 1-88, 110-468; expressed in transfected cells
T1 sequence (P41586 21-447 isoform P41586-3): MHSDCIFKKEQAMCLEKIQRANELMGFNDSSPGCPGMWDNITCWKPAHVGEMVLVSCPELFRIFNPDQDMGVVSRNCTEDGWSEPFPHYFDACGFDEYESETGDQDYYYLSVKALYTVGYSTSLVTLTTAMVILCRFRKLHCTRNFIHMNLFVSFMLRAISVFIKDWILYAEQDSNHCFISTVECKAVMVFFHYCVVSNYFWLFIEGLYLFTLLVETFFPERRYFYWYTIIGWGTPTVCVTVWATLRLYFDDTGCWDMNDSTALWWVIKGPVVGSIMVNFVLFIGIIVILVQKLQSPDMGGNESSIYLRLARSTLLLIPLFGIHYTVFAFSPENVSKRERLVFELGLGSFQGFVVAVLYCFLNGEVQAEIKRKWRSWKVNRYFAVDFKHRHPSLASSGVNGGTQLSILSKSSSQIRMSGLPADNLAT
Protocol: (§1) Selected hPAC1 antibodies as described herein were screened in an in vitro PAC1 mediated cAMP assay to determine intrinsic potency.
(§2) PAC1-CHO, Rat PAC1, and Cyno PAC1 cells were grown in Dulbecco's modified Eagle's medium (DMEM) (Gibco Cat #11965), 10% dialyzed FBS (Invitrogen 26400044), 1% MEM non-essential amino acids (Invitrogen 11140-050), 1% sodium pyruvate (Invitrogen 11360070), 1% glutamine/pen/strep (Invitrogen 10378016).
(§3) The cells were grown under the conditions described above and harvested at 80-90% confluence. The cells were dissociated with VERSENE (1:5000, Invitrogen, 15040-060) for SHSY5Y cells; with 0.05% Trypsin-EDTA (1×), Phenol Red (Invitrogen, 25300054), and were then centrifuged in a Beckman GS-6R unit at 1000 rpm for 5 minutes at 4° C. The pellets were resuspended with cell freezing medium (Invitrogen, 12648010). The cells were then counted using a Z1 Coulter Particle Counter and adjusted to desired concentration (5E6/ml or 2E6/ml) and aliquots were stored at −80° C. or in liquid nitrogen until use. Concentrations for PAC1 cells, hVPAC1/2 CHO were 4K/10 μl; the others at 2K/10 μl; for SKNMC and L6, the concentration was 1K/10 μl.
(§4) The LANCE Ultra cAMP assay kit (PerkinElmer, Boston, Mass.) was used in the screening. The assays were performed in triplicate in white Optiplates half-area 96-well plates (Costar 3642) in a total volume of 40 μL. […]

human platelets = test: Platelet phagocytosis assay, human; conditions: up to 3 mg/ml, lowest positive concentration
Protocol: (§5) To address any potential Fc gamma receptor induced platelet depletion, a subset of the antibodies described herein was tested in a Phagocytosis Assay.
(§6) In brief, whole blood samples from healthy cynomolgus donors were centrifuged at 170×g for 15 minutes with no braking. Platelet-rich plasma (PRP) was collected from the top layer. The bottom layers of the sample were centrifuged at 2000×g for 10 minutes to obtain the platelet-poor plasma (PPP) layer and buffy coat. Platelets in the PRP fraction were labeled with 20 μM Cell Tracker Green CMFDA for 30 minutes at room temperature. Labeled platelets were washed with PBS, resuspended in RPMI-1640 with 10% FBS, and adjusted to a concentration of 1×10^8 cells/mL. PBL were prepared from the buffy coat obtained from the same donor. Erythrocytes were lysed with BD Pharm-lyse following the protocol provided by the vendor. […]
(§7) The phagocytosis reaction was initiated by incubating 100 μL each of CMFDA-labeled platelets and PBMC with test articles in the dark. […] Extracellular fluorescence was quenched by incubating 2 minutes with 0.1% trypan blue. […] After washing, the cells were analyzed by a BD LSRII Flow Cytometer (FIG. 2). Based on previous experiences, monocytes phagocytosing platelets have CMFDA median fluorescence intensity values at least 2-fold or higher than negative controls (either a-SA or a-DNP) (2).

cynomolgus platelets = test: Platelet phagocytosis assay, cynomolgus; conditions: up to 3 mg/ml, lowest positive concentration
Protocol: as §5, §6, §7

human PAC1 (hPAC1) = target: T2, human PAC1 (hPAC1) (Homo sapiens, UniProt P41586); test: cAMP assay, cells expressing recombinant human PAC1 (hPAC1-CHO); conditions: agonist activity of anti-PAC1 antibody in cAMP assay
T2 construct: expressed in transfected cells; host or cells: CHO (PAC1-CHO; also hPAC1-CHO-K1, Perkin Elmer ES-272-A)
T2 sequence (P41586 21-468): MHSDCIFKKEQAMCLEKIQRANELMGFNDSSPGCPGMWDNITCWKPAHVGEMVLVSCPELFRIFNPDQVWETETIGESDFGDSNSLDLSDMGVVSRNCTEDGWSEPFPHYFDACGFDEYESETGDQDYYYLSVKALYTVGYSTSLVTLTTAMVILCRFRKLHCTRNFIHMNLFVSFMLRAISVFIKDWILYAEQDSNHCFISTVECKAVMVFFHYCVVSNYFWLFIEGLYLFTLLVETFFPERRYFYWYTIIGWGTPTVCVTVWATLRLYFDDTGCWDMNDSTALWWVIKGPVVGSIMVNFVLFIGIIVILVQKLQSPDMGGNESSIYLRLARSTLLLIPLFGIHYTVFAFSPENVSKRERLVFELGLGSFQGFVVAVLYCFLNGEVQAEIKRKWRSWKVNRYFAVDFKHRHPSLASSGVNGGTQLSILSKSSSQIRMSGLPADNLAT
Protocol: as §1, §2, §3, §4

B1: 29B: anti-hPAC1 antibody, LC-11 and HC-40; aglycosylated IgG1 (antibody)
heavy: QVQLVESGGGVVQPGRSLRLSCAASGFTFSRYAMHWVRQASGKGLEWVAVISYDGSNKYYADSVKGRFTISRDNSKNTLYLLMSSLRAEDTAVFYCARGYDILTGYPDYWGQGTLVTVSSASTKGPSVFPLAPSSKSTSGGTAALGCLVKDYFPEPVTVSWNSGALTSGVHTFPAVLQSSGLYSLSSVVTVPSSSLGTQTYICNVNHKPSNTKVDKKV[no letters for human IgG1 Fc with changes]
light: DIQLTQSPSFLSASVGDRVTITCRASQSIGRSLHWYQQKPGKAPKLLFKYASQSLSGVPSRFSGSGSGTEFTLTISSLQPEDFATYYCHQSSRLPFTFGPGTKVDIKRTVAAPSVFIFPPSDEQLKSGTASVVCLLNNFYPREAKVQWKVDNALQSGNSQESVTEQDSKDSTYSLSSTLTLSKADYEKHKVYACEVTHQGLSSPVTKSFNRGEC
modifications: aglycosylated IgG1; Synthetic HC-40 polypeptide; Synthetic LC-11 polypeptide
notes: anti-hPAC1 antibody, LC-11 and HC-40; aglycosylated IgG1
IC50 [1]: 4.7 ± 2.4 nM
human platelet (human platelets): Negative
cyno platelet (cynomolgus platelets): Negative
Agonist activity (human PAC1 (hPAC1)): >10 µM
